Laboratory results taken from the supplement of paper PMC3334620.
The full ranking holds about 33,000 sequences; the median of “E-score (-0.5 to 0.5)” is about -0.021, and the highest 2% start at about 0.32. Some of the results follow.

molecular target: T1, Zap1 (UniProt P47043); assay: PBM E-score (8-mer binding enrichment) (E-score (-0.5 to 0.5)); higher = stronger / more preferred TF binding; most listed sequences are background and not binding sites; details: protein concentration: 200 nM; construct: GST-full length
T1 sequence: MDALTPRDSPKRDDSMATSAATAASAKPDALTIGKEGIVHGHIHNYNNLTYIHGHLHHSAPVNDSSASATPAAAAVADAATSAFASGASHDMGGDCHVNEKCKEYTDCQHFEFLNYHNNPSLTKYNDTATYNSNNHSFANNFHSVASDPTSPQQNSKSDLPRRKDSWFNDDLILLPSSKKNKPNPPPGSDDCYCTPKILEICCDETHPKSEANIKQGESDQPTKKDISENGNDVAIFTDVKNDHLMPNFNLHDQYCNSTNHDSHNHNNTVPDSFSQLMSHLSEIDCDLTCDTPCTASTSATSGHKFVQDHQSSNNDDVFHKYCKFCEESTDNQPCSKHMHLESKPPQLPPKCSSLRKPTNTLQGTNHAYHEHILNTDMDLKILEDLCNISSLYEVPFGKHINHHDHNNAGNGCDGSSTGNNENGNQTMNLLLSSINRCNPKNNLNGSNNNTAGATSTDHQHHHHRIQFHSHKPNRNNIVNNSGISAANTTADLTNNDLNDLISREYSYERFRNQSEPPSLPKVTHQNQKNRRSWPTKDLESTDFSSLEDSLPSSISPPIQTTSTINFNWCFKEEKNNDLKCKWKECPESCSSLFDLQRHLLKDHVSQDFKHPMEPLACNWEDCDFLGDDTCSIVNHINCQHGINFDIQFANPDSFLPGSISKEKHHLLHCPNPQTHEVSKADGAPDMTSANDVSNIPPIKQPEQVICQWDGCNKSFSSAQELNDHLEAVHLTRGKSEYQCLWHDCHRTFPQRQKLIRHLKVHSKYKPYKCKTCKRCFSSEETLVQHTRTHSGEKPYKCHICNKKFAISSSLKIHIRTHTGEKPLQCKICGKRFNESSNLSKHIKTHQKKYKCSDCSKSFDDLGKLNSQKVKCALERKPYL
Experimental: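 Universal 'all 10-mer' protein binding microarrays (Agilent AMADID 015681) probed with GST-tagged S. cerevisiae TFs (full-length or DBD) made by in vitro transcription/translation (PURExpress), about 100-200 nM. Bound TF was detected with fluorescent anti-GST. Each ungapped 8-mer (which stands for itself and its reverse complement) is scored by the PBM enrichment score (E-score), a modified Wilcoxon-Mann-Whitney statistic from -0.5 to +0.5, computed with the Universal PBM Analysis Suite. Scale: above 0.35 generally sequence-specific binding.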

| Sequence | PBM E-score |
| --- | --- |
| GCGGAGAC | -0.0389 |
| AGTAGTGC | -0.141 |
| GTGTCTGA | -0.113 |
| CGGAAGCC | -0.219 |
| GCAACATA | -0.139 |
| AGTGGCGA | -0.0531 |
| GCGAAGAA | -0.0184 |
| GTGTCCTA | 0.135 |
| ATTCCACG | 0.05 |
| TGACACCA | -0.0107 |
| TCCGCACA | 0.029 |
| CGTGGCGA | -0.0347 |
| ATAAAAAA | 0.162 |
| CACTCCTA | -0.126 |
| AACGTTAG | -0.0828 |
| GGGTACTA | 0.335 |
| CGGTTCAC | -0.082 |
| CTAAATTC | -0.0115 |
| GACTAAGA | 0.0168 |
| AAGACGTA | 0.00703 |
| AAGCGGAT | -0.0563 |
| ATGAGGTA | 0.324 |
| ATCAGTTA | 0.124 |
| ACGATGAT | -0.113 |
| AGGTGGAT | -0.0931 |

| Sequence | PBM E-score |
| --- | --- |
| CTTTTCTA | -0.00713 |
| CTTCTAAA | -0.0443 |
| TAGACTGA | -0.182 |
| GTTCGGCA | -0.0616 |
| CGATCCAG | -0.184 |
| ACTCACCA | 0.00662 |
| ACGCTGAG | -0.208 |
| AAGACCCC | 0.323 |
| AAAATACC | 0.264 |
| TAATGGAA | 0.126 |
| CGAATCAC | -0.12 |
| ATTTGAGA | 0.0352 |
| GTGTTCTA | 0.183 |
| ACGGCGTA | -0.228 |
| AAGGAACC | 0.248 |
| AAAAGTAT | 0.0108 |
| AGAAGTGC | -0.158 |
| AATCAACC | 0.13 |
| AGCAAGCT | -0.175 |
| CTAAGAGC | -0.108 |
| AACCTCGA | 0.367 |
| ATCCATTG | -0.0306 |
| GGCATGGA | -0.228 |
| AGCGCCAG | -0.256 |
| CTGAATGC | -0.212 |

| Sequence | PBM E-score |
| --- | --- |
| CCTGTCAA | 0.0108 |
| ACTCAGGC | -0.0941 |
| GTTATGTA | 0.12 |
| AGCACCCT | 0.317 |
| AGGAGCTG | -0.185 |
| AAGGGCGA | -0.128 |
| CACACTCC | -0.152 |
| ACAGGGCG | -0.107 |
| TCCAGGGA | -0.238 |
| ATCCCGTG | 0.0154 |
| AACATATC | -0.00354 |
| CGGGAGAC | -0.169 |
| GCTCGGGA | -0.401 |
| ATGTGTGA | 0.00827 |
| ATCTTTCC | -0.147 |
| GATACGTA | -0.0479 |
| AAGTAATC | 0.119 |
| CCATGCCA | -0.0723 |
| CAAGGTCA | 0.386 |
| ATTCTCGC | -0.317 |
| AGTGAAAG | 0.0651 |
| AGGTGCCC | 0.0072 |
| CAGGATAG | 0.106 |
| CAAACTAG | 0.0331 |
| ATGAACAT | 0.1 |

| Sequence | PBM E-score |
| --- | --- |
| GAACAGTC | -0.129 |
| ATCTTGGC | -0.329 |
| AGAAAGAG | -0.115 |
| CCCGTTTC | -0.0978 |
| CGCCCAAG | -0.0736 |
| TCGAATAA | 0.0261 |
| CCAGACAC | -0.0801 |
| CTCGGTCC | -0.103 |
| CATTACCC | 0.282 |
| CGTGATAG | -0.0351 |
| CGGTTACA | 0.411 |
| CTAAACTA | 0.144 |
| CATCGCCC | -0.2 |
| ACAGGCTA | -0.102 |
| TGATTAAA | 0.144 |
| ACCGAGAT | 0.0357 |
| ATTTTAAG | 0.0616 |
| AGGTAACG | 0.19 |
| AAGGGCGT | -0.0596 |
| CATTTTCG | 0.0212 |
| CACTCTCG | -0.0581 |
| GGATAGAA | 0.0515 |
| CCTGCGAG | -0.0249 |
| GCTAGACA | -0.156 |
| GCCCTGCA | -0.195 |

| Sequence | PBM E-score |
| --- | --- |
| CGGCTGTA | -0.148 |
| CTCCTGAA | 0.0319 |
| AGACGTAA | 0.0862 |
| AACCGAAG | 0.0612 |
| AAGATACC | 0.214 |
| ACGACCGG | -0.0537 |
| AAACTGAA | 0.0737 |
| ACTTATTG | 0.0522 |
| AAGGGTTC | 0.339 |
| ATTATGTG | 0.119 |
| ACTTCGCC | -0.172 |
| ATGTCGTC | -0.15 |
| GGGCCTAA | -0.0919 |
| CGAGTTCA | 0.125 |
| AAGGATAC | 0.064 |
| CCACGATA | 0.0381 |
| CCTTTACA | 0.189 |
| CTCTAATA | 0.0821 |
| ACCTCGTG | 0.348 |
| AACAGCCA | -0.0164 |
| ATTGGAAC | 0.133 |
| AATGACCT | 0.393 |
| GTGTGGAA | -0.0518 |
| CCATGGAA | 0.128 |
| CTCTGTTA | -0.0886 |

| Sequence | PBM E-score |
| --- | --- |
| CTACATCA | 0.0866 |
| AGGTGATG | 0.117 |
| GAAAGGAA | -0.0712 |
| TAGTATCA | 0.155 |
| GCACTGTA | 0.0139 |
| CTGACCAG | 0.185 |
| ATAGACGG | -0.0589 |
| AGCGAGAG | -0.00964 |
| AGTAGAGG | -0.196 |
| AGTTACGC | -0.0283 |
| GCCACGAC | 0.0554 |
| TAACTGTA | 0.174 |
| AAAGATAT | 0.0932 |
| ACCTAATC | 0.158 |
| GAATGCCC | -0.167 |
| ATGTGGAG | -0.0323 |
| CACGCCCG | -0.108 |
| CCAGATTC | -0.0471 |
| TCGCAGCA | -0.0698 |
| GAAACATC | -0.0445 |
| ATTGCGCG | 0.0701 |
| GACACGGC | -0.145 |
| GGAAGCAA | -0.13 |
| ATCATTTA | 0.091 |
| CATAAGGC | -0.103 |

| Sequence | PBM E-score |
| --- | --- |
| AATACAGT | 0.0335 |
| CTCACGTA | -0.0614 |
| ACATACAA | 0.0887 |
| GACCTGCA | -0.0408 |
| AAGTTTAA | 0.0822 |
| AAAGGGTT | 0.396 |
| CGAACGTC | -0.15 |
| TACCCCAA | 0.363 |
| CACTCGGG | -0.0643 |
| CCCCAGCG | -0.0867 |
| AAACCCTG | 0.337 |
| AGGTGCTG | 0.0105 |
| AAAATTAG | -0.0229 |
| AACGAGAC | -0.15 |
| CATACAAA | 0.168 |
| CATCCGTC | -0.194 |
| CGACAATA | 0.0243 |
| AGATTGCC | -0.0987 |
| GTGATACA | 0.0362 |
| TCGCATAA | 0.177 |
| ATGCCTGA | -0.181 |
| ATTAGCCC | -0.24 |
